“And” between values parts separate entries of the source, which are not always exact repeats. Equal entries are not always repeated. ± gives the uncertainty stated by the source. The full ranking holds about 9,900 compounds; the median of “viability index relative to DMSO control” is about 1, and the lowest 2% start at about 0.85. This is one part of the list.

The subject of this experiment is Plasmodium falciparum NF54 stage V gametocytes. Description: viability index relative to DMSO control (fraction); higher = less gametocyte killing. The settings on record: 2.5 µM, library set: Broad Institute DOS, incubation time: 72 h. Summed up:
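Stage V gametocytes of P. falciparum NF54 were held in serum-free screening medium at 0.75% gametocytemia and 1.25% hematocrit, 10 µl per well of a 1,536-well plate, and exposed to compound at 2.5 µM for 72 hr at 37°C under low oxygen. A 3 µl mix of 2.5 µM MitoTracker Red CMXRos with 0.13% saponin was then added for one to two hours, after which one field per well was imaged and red particles of 20–70 µm2 were counted. The viability index equals this count divided by the plate mean from wells given solvent alone.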
The compound `COc1ccccc1-c1ccc([C@@H]2[C@H](C#N)N[C@H]2CO)cc1` registered a viability index of 1.1 ± 0.046. In the case of `O=C(C[C@@H]1CC[C@H](NC(=O)CC2CC2)[C@H](CO)O1)NCC(F)(F)F` it was 1.08 ± 0.051; in that of `COc1ccc2c3c([C@H](CO)NC[C@]33CN(Cc4ccc(cc4)-c4ccccn4)C3)n(C)c2c1`, 0.934 ± 0.11.

The compound `CN(C)CC(=O)N1CC2(C1)[C@@H](c1ccccc1)[C@@H](CO)N2C(=O)C1CC1` showed a viability index of 0.96839 ± 0.00043. In the case of `O=C(C[C@@H]1CC[C@@H]2[C@H](COC[C@@H](O)CN2CC2CCOCC2)O1)NCC1CCCCC1` it was 0.974 ± 0.14. To `O=C(C[C@H]1CC[C@H]2[C@@H](COC[C@H](O)CN2C(=O)Nc2cccc(F)c2)O1)NCCCN1CCOCC1` belongs 1.0467 ± 0.00062; to `O=C1N[C@@H](c2ccccc2)COCc2cn(nn2)CC[C@@H]1Cc1ccc(C(F)(F)F)cc1`, 0.9942 ± 0.0042. On to `CC(C)[C@@H]1C(=O)N[C@@H](c2ccc(F)cc2)C/C=C/C[C@@H](C)Oc2ccccc2C(=O)N1C.CC(C)[C@@H]1C(=O)N[C@@H](c2ccc(F)cc2)C/C=C\C[C@@H](C)Oc2ccccc2C(=O)N1C`, for which the viability index stood at 1.05 ± 0.032.

In turn, `O=C(C[C@H]1CC[C@H]2[C@@H](COC[C@@H](O)CN2Cc2ccc3c(c2)OCO3)O1)N1CCCCC1` showed a viability index of 0.97 ± 0.11.

Compound `O=C(C[C@@H]1C[C@H]2c3cc(NS(=O)(=O)c4ccc(F)cc4)ccc3O[C@H]2[C@H](CO)O1)N1CCc2ccccc2C1` displayed a viability index of 1 ± 0.11. `CCC(=O)N1CC2(C1)[C@@H](c1ccc(-c3cccc(C)c3)cc1)[C@@H](CO)N2S(C)(=O)=O`: the viability index was found to be 1.057 ± 0.0069. To `CC(C)NC(=O)N(C)C[C@H]1Oc2ccc(NC(=O)c3ccncc3)cc2C(=O)N([C@@H](C)CO)C[C@@H]1C` belongs 0.935 ± 0.024; to `O=C(C[C@@H]1CC[C@H]2[C@@H](COC[C@H](O)CN2CCC(F)(F)F)O1)NCC1CC1`, 1.02 ± 0.034; to `CCN(C[C@@H]1[C@@H](c2ccccc2)[C@H](CO)N1CC1CC1)C(=O)c1ccccn1`, 1.04 ± 0.032.

On to `COc1cccc(-c2ccccc2[C@@H]2[C@H](C#N)N(C(=O)Cc3ccccc3)[C@H]2CO)c1`, for which the viability index is 0.996 ± 0.22. To `Cc1noc(C)c1NC(=O)Nc1ccc2c(c1)C(=O)N([C@@H](C)CO)C[C@H](C)[C@H](CN(C)S(=O)(=O)c1cccs1)OCCCC[C@H](C)O2` belongs 1.03 ± 0.045. In the case of `COc1ccc(NC(=O)N2[C@@H]3CNC[C@H]2[C@H]3c2ccc(/C=C/c3ccccc3)cc2)cc1` it was 1.05 ± 0.032; in that of `N#C[C@@H]1[C@@H](c2ccc(C3=CCCCC3)cc2)[C@@H](CO)N1S(=O)(=O)c1ccccc1`, 1.187 ± 0.0046; in that of `COCC(=O)N1C[C@@]2(C1)CN([C@H](CO)c1c2c2ccc(OC)cc2n1C)C(=O)NC1CCCC1`, 0.985 ± 0.084.

The compound `O=C(c1ccccc1)N1CC(=O)N2[C@H](C1)[C@@H](c1ccc(-c3ccccc3)cc1)[C@@H]2CO` had a viability index of 0.829 ± 0.051. In the case of `CCS(=O)(=O)N1CCCCN2[C@H](CO)[C@H](c3ccc(C#Cc4ccccn4)cc3)[C@@H]2C1`, the viability index was determined as 1.01 ± 0.076. To `COc1cccc(S(=O)(=O)Nc2ccc3c(c2)C(=O)N(C)C[C@H](OC)[C@H](C)CN(Cc2ccccc2F)[C@@H](C)CO3)c1` belongs 1.01 and 1.07; to `O=C1N[C@H](Cc2ccccc2)COCc2cnnn2CC[C@@H]1Cc1ccc(-c2ccccc2)cc1`, 1.07 ± 0.051. To `N#C[C@@H]1[C@@H](c2ccc(-c3cccc(F)c3)cc2)[C@H](CO)N1C(=O)CN1CCOCC1` belongs 1.09 ± 0.021; to `CN1c2ccc(C3=CCCCC3)cc2[C@@H]2[C@@H](CCN2C(=O)C2CCOCC2)[C@H]1CO`, 1.05 ± 0.041.

In the case of `C[C@@H](NC(=O)C[C@H]1CC[C@@H]2[C@H](COC[C@H](O)CN2Cc2ccc(C(F)(F)F)cc2)O1)c1ccccc1`, the viability index came out at 1.07 ± 0.039. In the case of `COc1cccc(S(=O)(=O)N2CCCCN3[C@@H](CO)[C@H](c4ccc(C#CCC(C)C)cc4)[C@@H]3C2)c1` it was 1.01 ± 0.053. To `COc1ccc(-c2ccc([C@H]3[C@@H](CO)N4C(=O)CN(C(=O)C5CC5)C[C@@H]34)cc2)cc1` belongs 1.01 ± 0.033. Turning to `C[C@H](CO)N1C[C@H](C)[C@H](CN(C)C(=O)Nc2ccc3c(c2)OCO3)Oc2ncc(Br)cc2C1=O`, the viability index is 0.978 ± 0.12.

Compound `C[C@H]1CN([C@@H](C)CO)S(=O)(=O)c2ccc(C#CC3(O)CCCC3)cc2O[C@@H]1CN(C)C(=O)Nc1cccc(F)c1` returned a viability index of 0.933 ± 0.026. Turning to `C[C@H](CO)N1C[C@H](C)[C@H](CN(C)C)Oc2ccc(NS(C)(=O)=O)cc2C1=O`, the viability index amounted to 0.935 ± 0.021. To `O=C(C[C@H]1C=C[C@H](NC(=O)Cc2ccccn2)[C@H](CO)O1)NCCc1ccncc1` belongs 0.875 ± 0.049; to `C/C=C/c1ccc([C@H]2[C@@H](CO)N3C(=O)CN(Cc4ccc(F)cc4)C[C@H]23)cc1`, 0.987 ± 0.057; to `COc1ccc(C#Cc2ccc3c(c2)[C@H]2[C@H](CCN2C(=O)C2CCOCC2)[C@H](CO)N3)cc1`, 1.01 ± 0.069. As to `COc1ccc([C@@H]2C/C=C/C[C@@H](C)Oc3ccccc3C(=O)N(C)[C@@H](C(C)C)C(=O)N2)c(OC)c1.COc1ccc([C@@H]2C/C=C\C[C@@H](C)Oc3ccccc3C(=O)N(C)[C@@H](C(C)C)C(=O)N2)c(OC)c1`, the viability index is 0.968 ± 0.016. Compound `N#C[C@@H]1[C@@H](c2ccc(C#Cc3ccccc3F)cc2)[C@@H](CO)N1C(=O)c1cccnc1` gave a viability index of 1.04 ± 0.018. To `COc1ccc(NC(=O)N2CCCCN3[C@H](CO)[C@H](c4ccc(-c5ccccc5F)cc4)[C@H]3C2)cc1` belongs 0.9607 ± 0.0031; to `O=C(C1CCC1)N1CC2(C1)[C@H](c1ccccc1)[C@H](CO)N2Cc1nccs1`, 0.983 ± 0.12; to `Cc1noc(C)c1S(=O)(=O)N(C)C[C@H]1OCCCC[C@@H](C)Oc2ccc(N(C)C)cc2C(=O)N([C@@H](C)CO)C[C@@H]1C`, 0.97 ± 0.04. For `CO[C@@H]1CC[C@@H]2CCN(C)C(=O)CCCN(C)C(=O)c3cc(C#N)ccc3OC[C@@H]1O2`, the viability index is 1.01 ± 0.066. In the case of `C/C=C/c1ccc2c(c1)[C@H]1[C@H](CCN1C(=O)C1CCCC1)[C@@H](CO)N2`, the viability index is 0.984 ± 0.038. To `C/C=C/c1ccc([C@H]2[C@@H](CO)N[C@@H]2CN(CC)C(=O)CN2CCOCC2)cc1` belongs 0.954 ± 0.081; to `N#C[C@H]1[C@@H](c2ccccc2C2=CCCCC2)[C@H](CO)N1C(=O)CN1CCOCC1`, 1.14 ± 0.083; to `COCC(=O)NC[C@@H]1[C@H](c2ccccc2)[C@@H](CO)N1C(=O)c1ccccc1`, 1.03 ± 0.094. For the compound `O=C(Nc1ccc2c(c1)[C@@H]1C[C@H](CC(=O)N3CCOCC3)O[C@H](CO)[C@@H]1O2)Nc1ccccc1F`, the viability index came to 1.1 ± 0.058.

For the origin of these results see the supplement of paper PMC4723716.
